From PubChem BioAssay AID1745853 (National Center for Advancing Translational Sciences (NCATS), 2022) come the findings set out here.

Experiment in all cases: Primary Screen for Target Class Profiling of Small Molecule Inhibitors of Methyltransferases
Assay [1] concerns the target Glycine N-methyltransferase (Homo sapiens) (UniProt Q14749). The conditions noted are these: purified enzyme, MTase-Glo SAH luminescence; measured here: GNMT inhibition; at 40 µM; stronger effect = lower value. The essentials:
(§1)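 Each enzyme was assayed with SAM and its substrate. SAH formation detected by MTase-Glo luminescence; single-point 40 uM screen[…].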

In assay [2] the target is Guanidinoacetate N-methyltransferase (Homo sapiens) (UniProt Q14353). The conditions noted are these: purified enzyme, MTase-Glo SAH luminescence; measured here: GAMT inhibition; at 40 µM; stronger effect = lower value. The essentials: as §1
The target in assay [3] is Histamine N-methyltransferase (Homo sapiens) (UniProt P50135). The conditions noted are these: purified enzyme, MTase-Glo SAH luminescence; measured here: HNMT inhibition; at 40 µM; stronger effect = lower value. The method in brief:
as §1

Assay [4] has as its target Nicotinamide N-methyltransferase (Homo sapiens) (UniProt P40261). As to conditions: purified enzyme, MTase-Glo SAH luminescence; measured here: NNMT inhibition; at 40 µM; stronger effect = lower value. The method in brief:
as §1

The target in assay [5] is Phenylethanolamine N-methyltransferase (Homo sapiens) (UniProt P11086). As to conditions: purified enzyme, MTase-Glo SAH luminescence; measured here: PNMT inhibition; at 40 µM; stronger effect = lower value. The method in brief: as §1

Several values for one entry are separate records, joined by “and”; a condition that tells them apart may be missing. Identical values can stand only once. This is one part of the list. Further columns of the screen follow, without active or inactive calls.
On the % scale 0 is the no-effect control and ±100 the full control effect.

Regarding `CO[C@@H]1CC(OC2CCC3(C)C(CCC45CCC(C6=CC(=O)OC6)C(C)(CCC43)C5=O)C2)O[C@H](C)[C@@H]1O[C@@H]1O[C@H](CO[C@@H]2O[C@H](CO)[C@@H](O)[C@H](O)[C@H]2O)[C@@H](O)[C@H](O)[C@H]1O` (some centres not stated), the activity change, negative = inhibition in assay [1] was -2.78%; in assay [2] it was -0.358%; in assay [3], 3.24%; in assay [4], -13.6%; in assay [5], -6.12%.
Consider `CCCn1c(=O)c2ccc(C(=O)NC(C)C)cc2n2c(=O)n(CC(=O)NC(C)C)nc12`, for which the activity change, negative = inhibition in assay [1] worked out at 3.37%; in assay [2], 5.34%; in assay [3] it was 2.88%; in assay [4], 4.22%; in assay [5], 0.703%.
Take `CCOC(=O)c1csc(Nc2ccc(Cl)cc2)n1`: the activity change, negative = inhibition is -25.1% in assay [1]; -23.1% in assay [2]; 8.67% in assay [3]; -29.5% in assay [4]; -9.39% in assay [5].
Turning to `COc1ccc(C2(O)c3c(ccc4c3OC(C)(CCC=C(C)C)C=C4)NC(=O)C2OC)cc1` (configuration not stated), the activity change, negative = inhibition in assay [1] was -0.135%; in assay [2], -5.39%; in assay [3] it was -0.181%; in assay [4], -23.1%; in assay [5] it was -0.856%.
`CCCn1c(=O)c2ccc(C(=O)NCC(C)C)cc2n2c(=O)n(CC(=O)Nc3ccc(C)c(C)c3)nc12`: the activity change, negative = inhibition in assay [1] was 4.31%; in assay [2] it was 3.52%; in assay [3], 6.88%; in assay [4], -0.576%; in assay [5], 1.56%.
For `O=C(Cn1nc2n(CCc3ccccc3)c(=O)c3ccccc3n2c1=O)c1cccc(Cl)c1`, the activity change, negative = inhibition in assay [1] was -5.72%; in assay [2], -6.64%; in assay [3], 8.88%; in assay [4] it was -13%; in assay [5] it was -4.33%.
Turning to `COc1ccc(CO[C@H]2COCCN(c3nc4ccccc4s3)C2)cc1`, the activity change, negative = inhibition in assay [1] is -5.45%; in assay [2], -1.43%; in assay [3], -7.97%; in assay [4] it was -18.7%; in assay [5] it was -4.26%.
On the same counts, the results for `COc1ccc(C(=O)Nc2cnc3c(c2)CCC3)cc1` are -10.8%, -4.15%, -5.19%, -7.03% and 5.7%.
For the compound `CC(C)Oc1ccc(C(=O)NC(CNC(=O)CN(C)C)Cc2ccc(-c3cn4cccc(C(C)O)c4n3)cc2)cc1Cl` (configuration not stated), the activity change, negative = inhibition stood at 5.05% in assay [1] and 3.89% in assay [3].
In the case of `CC1CC(=O)[C@]2(O)C(C(=O)OCCc3ccc(O)cc3)=CO[C@@H](O[C@@H]3O[C@H](CO)[C@@H](O)[C@H](O)[C@H]3O)[C@H]12` (some centres not stated), the activity change, negative = inhibition in assay [1] was 7.47%; in assay [2] it was 7.93%; in assay [3], 10.4%; in assay [4], -7.18%; in assay [5], 3.17%.
`CCOc1ccccc1NC(=O)CN(C)S(=O)(=O)c1ccc2[nH]c3c(c2c1)CCCC3`: the activity change, negative = inhibition was -6.13% in assay [1]; 2.86% in assay [2]; -3.41% in assay [3]; -6.1% in assay [4]; -1.8% in assay [5].
Regarding `O=C(c1cccnc1)N1CCC2(CC1)CC(N(C(=O)c1ccccc1)C1CC1)CCO2` (configuration not stated), the activity change, negative = inhibition in assay [1] is -1.21%; in assay [2], 1.14%; in assay [3], -0.604%; in assay [4], 0.557%; in assay [5], -3%.
On the same counts, the results for `COC(=O)CC(O)CC(O)/C=C/c1c(C)ccc2c1C(OC(C)=O)CC(C)C2` (configuration not stated) are 0%, -0.224%, -0.516%, -14.5% and 1.05%.
For `CC(C)n1c(=O)c2ccc(C(=O)NC3CCCC3)cc2n2c(=O)n(CC(=O)NC(C)(C)C)nc12` the same measures were 0.122%, 2.67%, 2.83%, 1.19% and -1.1%.
For `O=c1c2ccccc2n2c(=O)n(Cc3c(F)cccc3Cl)nc2n1CCc1ccccc1`, the activity change, negative = inhibition in assay [1] was -5.45%; in assay [2], -5.74%; in assay [3] it was -0.537%; in assay [4], 0.557%; in assay [5] it was -5.95%.
For `CCOCCCNC(=O)C1c2c(n(C)c3ccccc23)SCC(=O)N1c1cccc(Cl)c1C` (configuration not stated), the activity change, negative = inhibition in assay [1] was found to be 11.3%; in assay [2], 1.3%; in assay [3], 8.39%; in assay [4] it was 7.87%; in assay [5], 11.7%.
Regarding `CC(C)Cn1c(=O)c2ccc(C(=O)NC(C)C)cc2n2c(=O)n(Cc3cccc(F)c3)nc12`, the activity change, negative = inhibition was 1.81% in assay [1]; 0% in assay [2]; 1.32% in assay [3]; -0.33% in assay [4]; 4.85% in assay [5].
Regarding `C[N+]1(C)C2CC(OC(=O)[C@H](CO)c3ccccc3)CC1C1OC12` (some centres not stated), the activity change, negative = inhibition in assay [1] was -8.17% and -0.483%; in assay [2] it was 0.089% and 5.98%; in assay [3], -0.516% and 3.27%; in assay [4] it was -6.06% and -2.76%; in assay [5], 5.58% and 10.7%.
Take `O=C(CCc1nnc2n(Cc3ccc(F)cc3)c(=O)c3ccccc3n12)N1CCN(c2ncccn2)CC1`: the activity change, negative = inhibition was -13.4% in assay [1]; 0% in assay [2]; 10.7% in assay [3]; -26.8% in assay [4]; 1.16% in assay [5].
For `N#Cc1cccc(-c2nc(-c3cccnc3)no2)c1` the same measures were -8.64%, -6.44%, 4.59%, -22.4% and -1.39%.
For `Cc1ccc(CN2C(=O)c3cc(-c4cccs4)nn3CC2(C)C(=O)NC2CCCCC2)cc1` (configuration not stated) the same measures were 2.5%, 0.259%, 8.91%, 12.4% and 6.66%.
On the same counts, the results for `COc1cccc(C(=O)Cn2nc3n(C(C)C)c(=O)c4ccc(C(=O)NC5CCCC5)cc4n3c2=O)c1` are 0.667%, -0.587%, 7.8%, -1.53% and 1.17%.
Regarding `CCOc1ccccc1CN1C(=O)c2cc3sccc3n2CC1(C)C(=O)NC1CCCCCC1` (configuration not stated), the activity change, negative = inhibition in assay [1] was 2.2%; in assay [2], 4.11%; in assay [3], 10.1%; in assay [4], 1.76%; in assay [5] it was 0.27%.
For `O=C(NCc1cccc(C(F)(F)F)c1)c1ccc2nnc(-c3cc[nH]c3)n2c1` the same measures were -44.3%, -7.31%, -8.08%, -18.9% and -11.9%.
For `COc1cc(C(=O)OC[C@H]2O[C@@H](Oc3ccccc3/C=C/C(=O)O)[C@H](O)[C@@H](O)[C@@H]2O)cc(OC)c1OC` the same measures were -1.61%, 0.89%, 9.28%, -13.8% and -5%.
On the same counts, the results for `CN1C(=O)c2cc(C(=O)NCc3cccs3)nn2CC1(C)C(=O)NC1CCCCCC1` (configuration not stated) are 1.78%, 4.82%, -3.76%, 4.03% and 1.48%.
As for `CCCN1C(=O)c2c(C(=O)NCCc3ccccc3OC)ncn2CC1(C)C(=O)NC1CCCC1` (configuration not stated), the activity change, negative = inhibition is 1.39% in assay [1]; 0.522% in assay [2]; 5.55% in assay [3]; 3.87% in assay [4]; 8.94% in assay [5].
On to `CCOC(=O)c1cc2n(n1)CC(C)(C(=O)NC1CCCCC1)N(c1cccc(Cl)c1)C2=O` (configuration not stated), for which the activity change, negative = inhibition was -3.12% in assay [1]; 4.61% in assay [2]; -4.98% in assay [3]; 3.3% in assay [4]; -0.904% in assay [5].
Regarding `CCCn1c(=O)c2ccc(C(=O)NCC(C)C)cc2n2c(SCC(=O)Nc3ccccc3C)nnc12`, the activity change, negative = inhibition is 1.25% in assay [1]; 0% in assay [2]; 0.498% in assay [3]; -3.83% in assay [4]; 3.29% in assay [5].
